The record followed here is publication PMC6602471.

This is one part of the list. At the low end of the ranking the order means little.

The target of this experiment is T1, ETS1 (UniProt P14921).
T1 sequence: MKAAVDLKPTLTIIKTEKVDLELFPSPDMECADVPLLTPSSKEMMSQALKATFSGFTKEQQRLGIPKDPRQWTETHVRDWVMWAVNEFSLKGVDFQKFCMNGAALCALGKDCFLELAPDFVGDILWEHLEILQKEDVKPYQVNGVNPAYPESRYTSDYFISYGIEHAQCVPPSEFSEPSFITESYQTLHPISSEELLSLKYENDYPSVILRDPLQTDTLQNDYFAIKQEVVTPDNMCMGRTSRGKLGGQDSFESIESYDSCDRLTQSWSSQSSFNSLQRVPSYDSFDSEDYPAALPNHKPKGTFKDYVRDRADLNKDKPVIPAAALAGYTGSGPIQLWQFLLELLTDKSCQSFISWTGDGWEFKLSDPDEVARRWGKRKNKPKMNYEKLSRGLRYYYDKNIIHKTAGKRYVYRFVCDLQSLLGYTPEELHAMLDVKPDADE
Nature of the experiment: custom PBM. The settings on record: custom protein-binding microarray; buffer, salt, pH and temperature not stated; high values mean tight binding; double strand, one strand shown.
Turning to “GTGTATAGGATCCCATCCAACACACGTGTTAAAATGGTCTTGATTCGCTTGACGCTGCTG”, the binding signal (log fluorescence intensity) came to 8.35.

In the case of “CTGGGACTTGACCCATCTCTGCCACGTGGGTCGTTTGTCTTGATTCGCTTGACGCTGCTG”, the binding signal (log fluorescence intensity) was determined as 8.15. The value for “GTGTATAGGATGCCATCCAACACACGTGTTAAAATGGTCTTGATTCGCTTGACGCTGCTG” was 8.17; that for “TAAAGGTAAGACGGTTGTGGTAGTTCCGGGTATTAAGTCTTGATTCGCTTGACGCTGCTG” was 8.54. In the case of “GATTAATTTCTGCCCTTCTTCGCACGTGCCATAACAGTCTTGATTCGCTTGACGCTGCTG” it was 8.17; in that of “CTGGGACTTGACCCAACTCTGCCACGTGGGTCGGTTGTCTTGATTCGCTTGACGCTGCTG”, 8.17. The value for “GGAAAAAGGACCAGGGTAACACCGGAAGTGGGCTTAGTCTTGATTCGCTTGACGCTGCTG” was 12.1; that for “GTGTATAGGATCCCATACAACACACGTGTTAAAATGGTCTTGATTCGCTTGACGCTGCTG” was 8.21; that for “GAAAGGGAAGACGGTTGTGGTAGTTCCGGGTATTAAGTCTTGATTCGCTTGACGCTGCTG” was 8.75.

Regarding “CACAATTTTTACAGTAATTTAGCACGCGTAACTCCTGTCTTGATTCGCTTGACGCTGCTG”, the binding signal (log fluorescence intensity) is 8.22. The value for “GGAAAAAGGCCCAGGGTAACACGGGAAGTGGGCTTAGTCTTGATTCGCTTGACGCTGCTG” was 8.49. In the case of “GATTAATTTCTACCCTTATTCGCACGTGCCATAACAGTCTTGATTCGCTTGACGCTGCTG”, the binding signal (log fluorescence intensity) is 8.02.

As for “GGAAAAAGGCCCAGGGTAACACCGGAAGTGGGCGTAGTCTTGATTCGCTTGACGCTGCTG”, the binding signal (log fluorescence intensity) is 11.9. For the sequence “GCTGCGGCGGTGCATACCCCACCGGATGTGACCCCGGTCTTGATTCGCTTGACGCTGCTG”, the binding signal (log fluorescence intensity) stood at 10.9. The value for “GCTGCTGCGGTGCATGCCCCACCGGATGTGACCCCGGTCTTGATTCGCTTGACGCTGCTG” was 10.3; that for “GCGGCTGCGGTGCATACCCCACCGGATGTGACCCCGGTCTTGATTCGCTTGACGCTGCTG” was 10.

Take “CACAATTTTTACAGTAATGTACCACGCGTAACTCCTGTCTTGATTCGCTTGACGCTGCTG”: the binding signal (log fluorescence intensity) came out at 8.17. With “CAGCATAGGTCTTCTTCCCTGAAGCAATTGATAACCGTCTTGATTCGCTTGACGCTGCTG”, the binding signal (log fluorescence intensity) was 8.19.

On to “GGAAAAAGGCCCAGGGTAGCACCGGAAGTGGGCTTAGTCTTGATTCGCTTGACGCTGCTG”, for which the binding signal (log fluorescence intensity) was found to be 11.5. The value for “CTGGGACTTGACCCAACTCTGCCACGTGAGTCGTTTGTCTTGATTCGCTTGACGCTGCTG” was 8.12. For the sequence “CGGAAGTGTCGCAAACGTCGGATATCCGGTTCTTCTGTCTTGATTCGCTTGACGCTGCTG”, the binding signal (log fluorescence intensity) came to 12. The value for “TCCGGCTACCAGCTCCCCCCACTTCAGGCCTTGTAGGTCTTGATTCGCTTGACGCTGCTG” was 8.17; that for “CACAATTTTTACAATAATGTAGCACGCGTAACTCCTGTCTTGATTCGCTTGACGCTGCTG” was 8.23. On to “GATTAATTTCTGCCCTTATTCGCACGTGCCATACCAGTCTTGATTCGCTTGACGCTGCTG”, for which the binding signal (log fluorescence intensity) stood at 8.33. For “CACAATTTTTACAGTAATGTAGTACGCGTAACTCCTGTCTTGATTCGCTTGACGCTGCTG”, the binding signal (log fluorescence intensity) came out at 8.07.

On to “CGGAAGCGTCGTAAACGTCGGATATCCGGTTCTTCTGTCTTGATTCGCTTGACGCTGCTG”, for which the binding signal (log fluorescence intensity) turned out to be 11.8. In the case of “GCCGCTGCGGTGCATACCCCACCGGATGTGACCCCGGTCTTGATTCGCTTGACGCTGCTG” it was 10.3; in that of “TAAAGGGAAGACGGTTGTGGTAGTTCCGAGTATTAAGTCTTGATTCGCTTGACGCTGCTG”, 8.29. The value for “CAGCATAGGACTTCTTCACTGAAGCAATTGATAACCGTCTTGATTCGCTTGACGCTGCTG” was 8.32; that for “GGAAAAAGGCCCAGGGTAACACCGGAAGTGGTCTTAGTCTTGATTCGCTTGACGCTGCTG” was 11.7. Take “TAAAGGGAAGACGGTTGTGGTAGTTCCGGGGATTAAGTCTTGATTCGCTTGACGCTGCTG”: the binding signal (log fluorescence intensity) was 8.48.

On to “CAGCATTGGACTTCTTCCCTGAAGCAATTGATAACCGTCTTGATTCGCTTGACGCTGCTG”, for which the binding signal (log fluorescence intensity) stood at 8.33.

In the case of “GCTGCTGCGGTGCATACCCCACCGGATGTGACACCGGTCTTGATTCGCTTGACGCTGCTG”, the binding signal (log fluorescence intensity) was 10.3.

Consider “GGAAAAAGGCCCAGGGTAACACCGGAAGTGGGCTAAGTCTTGATTCGCTTGACGCTGCTG”, for which the binding signal (log fluorescence intensity) was 12.1. Take “CGGAAGTGTCGTAAACGTCGGGTATCCGGTTCTTCTGTCTTGATTCGCTTGACGCTGCTG”: the binding signal (log fluorescence intensity) turned out to be 10.5. Regarding “CACCATAGGACTTCTTCCCTGAAGCAATTGATAACCGTCTTGATTCGCTTGACGCTGCTG”, the binding signal (log fluorescence intensity) was 8.16. The value for “CTGGGACTTGACCCAAGTCTGCCACGTGGGTCGTTTGTCTTGATTCGCTTGACGCTGCTG” was 8.16. The value for “GAAAAAAGGCCCAGGGTAACACCGGAAGTGGGCTTAGTCTTGATTCGCTTGACGCTGCTG” was 12.1; that for “CTGGGACTTGACCCAACTCTGCCCCGTGGGTCGTTTGTCTTGATTCGCTTGACGCTGCTG” was 8.29; that for “GTGTATATGATCCCATCCAACACACGTGTTAAAATGGTCTTGATTCGCTTGACGCTGCTG” was 8.16.

In the case of “GATTAATTTCTGCCCTTATTGGCACGTGCCATAACAGTCTTGATTCGCTTGACGCTGCTG”, the binding signal (log fluorescence intensity) is 8.27.

For “TGTCGGGTAAGGGAATGTAGATCACGTGCATGAAAAGTCTTGATTCGCTTGACGCTGCTG”, the binding signal (log fluorescence intensity) stood at 8.11.

With “TACTGACTTATATATTCGAATGCACATGAATAGACCGTCTTGATTCGCTTGACGCTGCTG”, the binding signal (log fluorescence intensity) came to 8.06. The value for “TGTCGGGTAAGGGAATGTAGATCACGGGAATGAAAAGTCTTGATTCGCTTGACGCTGCTG” was 8.26; that for “GTGTATAGGATCCCATCCAAAACACGTGTTAAAATGGTCTTGATTCGCTTGACGCTGCTG” was 8.22. In the case of “CACAATTTTTACAGTAATGTAGCACGCGTAACTTCTGTCTTGATTCGCTTGACGCTGCTG” it was 8.2; in that of “CTGGGACTTGACCCAACTCTGCCACGTGGGTAGTTTGTCTTGATTCGCTTGACGCTGCTG”, 8.1. “TCCGGCTACCAGCTCCACCCACTTCAGTCCTTGTAGGTCTTGATTCGCTTGACGCTGCTG”: the binding signal (log fluorescence intensity) came out at 8.04. In the case of “CTGGGACTTGACCCAACTCTGCCATGTGGGTCGTTTGTCTTGATTCGCTTGACGCTGCTG” it was 8.2; in that of “CGCAAGTGTCGTAAACGTCGGATATCCGGTTCTTCTGTCTTGATTCGCTTGACGCTGCTG”, 11.8.

For “TGTCGGGTAAGGGAATGTAGATCACGTGAATGATAAGTCTTGATTCGCTTGACGCTGCTG”, the binding signal (log fluorescence intensity) was determined as 8.28. For “CACAATTTTTACAGTAATGTGGCACGCGTAACTCCTGTCTTGATTCGCTTGACGCTGCTG”, the binding signal (log fluorescence intensity) is 8.25. With “TACTGACTTATATATGCGAATGCACATGAATAGACCGTCTTGATTCGCTTGACGCTGCTG”, the binding signal (log fluorescence intensity) was 8.15.

With “TACTGACTAATATATGCGAATGCACATGAATAGACCGTCTTGATTCGCTTGACGCTGCTG”, the binding signal (log fluorescence intensity) was 8.26. The value for “TCCGGCTACCAGCTCCACCCACTTCAGGCCTTGGAGGTCTTGATTCGCTTGACGCTGCTG” was 8.32; that for “CGGAAGTGTCGTAAACGTCGGATATCCGGTTCTTCTGTCTTGATTCGCTTGACGCTGCTG” was 11.9. The value for “GTGTATAGGATCCCAGCCAACACACGTGTTAAAATGGTCTTGATTCGCTTGACGCTGCTG” was 8.27; that for “CGGAAGTGTCGTAAGCGTCGGATATCCGGTTCTTCTGTCTTGATTCGCTTGACGCTGCTG” was 11.7.

Regarding “TACTGACTTATATATGCGAATGCATATGAATAGACCGTCTTGATTCGCTTGACGCTGCTG”, the binding signal (log fluorescence intensity) amounted to 8.38. The value for “GGAAAAGGGCCCAGGGTAACACCGGAAGTGGGCTTAGTCTTGATTCGCTTGACGCTGCTG” was 11.8. The value for “GCTGCTGCGGTACATACCCCACCGGATGTGACCCCGGTCTTGATTCGCTTGACGCTGCTG” was 10.5; that for “CACAATTTTTACAGCAATGTAGCACGCGTAACTCCTGTCTTGATTCGCTTGACGCTGCTG” was 8.08. In the case of “CAGCATAGGACGTCTTCCCTGAAGCAATTGATAACCGTCTTGATTCGCTTGACGCTGCTG” it was 8.2; in that of “CGGGGACTTGACCCAACTCTGCCACGTGGGTCGTTTGTCTTGATTCGCTTGACGCTGCTG”, 8.21; in that of “TCCGGCTACAAGCTCCACCCACTTCAGGCCTTGTAGGTCTTGATTCGCTTGACGCTGCTG”, 8.3. For “GGAAAAAGGCCCAGGGTAACCCCGGAAGTGGGCTTAGTCTTGATTCGCTTGACGCTGCTG”, the binding signal (log fluorescence intensity) amounted to 10.5. In the case of “CGGAAGTCTCGTAAACGTCGGATATCCGGTTCTTCTGTCTTGATTCGCTTGACGCTGCTG” it was 11.3; in that of “CGGAAGTGTCCTAAACGTCGGATATCCGGTTCTTCTGTCTTGATTCGCTTGACGCTGCTG”, 11.7; in that of “AGTCGGGTAAGGGAATGTAGATCACGTGAATGAAAAGTCTTGATTCGCTTGACGCTGCTG”, 8.33. The value for “TACTGACTTCTATATGCGAATGCACATGAATAGACCGTCTTGATTCGCTTGACGCTGCTG” was 8.39; that for “TAAAGGGAAGACGGGTGTGGTAGTTCCGGGTATTAAGTCTTGATTCGCTTGACGCTGCTG” was 8.31. Take “GGAAAAAGGCCCAGGGTAACACCCGAAGTGGGCTTAGTCTTGATTCGCTTGACGCTGCTG”: the binding signal (log fluorescence intensity) is 8.23.

Consider “TACTGACTTATATATGCGTATGCACATGAATAGACCGTCTTGATTCGCTTGACGCTGCTG”, for which the binding signal (log fluorescence intensity) is 8.26. The value for “TCCGGCTACCAGCTCCACCCACTTCAGACCTTGTAGGTCTTGATTCGCTTGACGCTGCTG” was 8.32; that for “TAAAGGGAAGACGGTTGTGGTAGTTCCGGGTATTAGGTCTTGATTCGCTTGACGCTGCTG” was 8.47; that for “CGGAAGTGTCGTAAACGTCGGATATCCGTTTCTTCTGTCTTGATTCGCTTGACGCTGCTG” was 9.45. As for “CTGGGACTTGACCCAACTCTGCCACGTGGGTGGTTTGTCTTGATTCGCTTGACGCTGCTG”, the binding signal (log fluorescence intensity) was determined as 8.18. Take “GCTGCTACGGTGCATACCCCACCGGATGTGACCCCGGTCTTGATTCGCTTGACGCTGCTG”: the binding signal (log fluorescence intensity) is 10.3. In the case of “TCCGGCTACCAGCTCTACCCACTTCAGGCCTTGTAGGTCTTGATTCGCTTGACGCTGCTG” it was 8.21.

As to “TAAAGGGAAGACGGTTGTGGTAGTTCCGGGTACTAAGTCTTGATTCGCTTGACGCTGCTG”, the binding signal (log fluorescence intensity) is 8.61. The value for “GCTGCTGCGGTGCATACTCCACCGGATGTGACCCCGGTCTTGATTCGCTTGACGCTGCTG” was 10.
